Laboratory results reported in the supplement of paper PMC3694890.
± gives the uncertainty stated by the source. Some of the results follow. A small y stands for phosphotyrosine.

What follows are binders tested against GRB2 (endogenous complexes from cell lysate), P62993 (assay: GRB2 complex binding differential signal (pY peptide minus Ala control peptide) (fluorescence intensity units); higher = stronger GRB2 complex binding). Details: MCF7.
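Also: phosphopeptide probes on the chip at 1–4 µM, lysate proteins bound in 20 mM Tris pH 7.0 buffer with 140 mM NaCl, 1% Triton X-100 and 5% glycerol.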

Binder | GRB2 complex binding differential signal
yYNNST [LYN_265/A1] | 10700 ± 1800
yIDRPP [LCP2_173/A1] | 2400 ± 1800
yDKEYY [MET_1230/A1] | -50.4 ± 350
yVNVKC [MET_1356/A1] | 38000 ± 10000
yRKGGC [ALK_1282/A1] | 1220 ± 370
yVRDIG [MUSK_577/A1] | 2020 ± 620
yVHVNA [MET_1349/A1] | 1740 ± 510
yRIMTQ [ALK_1359/A1] | 3180 ± 610
yVRDPT [LYN_32/A1] | 2390 ± 1400
yETEGI [MCM6_276/A1] | 2050 ± 820
yFDLIY [MET_830/A1] | 1.48 ± 310
yEPPPS [LCP2_145/A1] | 4470 ± 1300
yEVMLK [MET_1313/A1] | 1070 ± 420
yRATFP [MET_1003/A1] | 4040 ± 2400
yNEDIN [MCM6_699/A1] | -305 ± 440
yPSLLS [MET_1365/A1] | -240 ± 420
yRRGDR [LTK_677/A1] | 1240 ± 350

Binder | GRB2 complex binding differential signal
yFKKLN [LCP2_23/A1] | 2150 ± 610
yLLGNS [LMNA _646 /A1] | 179 ± 300
ySGDYY [MERTK_749/A1] | 150 ± 140
ySADYY [MUSK_751/A1] | 105 ± 180
yAVVTR [LYN_306/A1] | 3480 ± 700
yYRRGD [LTK_676/A1] | 1410 ± 370
yRASYY [LTK_672/A1] | 358 ± 280
yYSVHN [MET_1234/A1] | 1060 ± 400
ySVHNK [MET_1235/A1] | 1230 ± 390
yDIMKM [LYN_473/A1] | 1060 ± 280
yLVVNP [MCM6_810/A1] | 319 ± 540
yIITEY [LYN_316/A1] | 145 ± 420
yQRMPL [MUSK_554/A1] | 8660 ± 2600
yYISPR [LYN_193/A1] | 2230 ± 510
yGSWFG [ALK_1507/A1] | 72 ± 240
yILNGG [MERTK_929/A1] | 771 ± 250

Same assay, conditions: MCF10A

Binder | GRB2 complex binding differential signal
yYNNST [LYN_265/A1] | 4700 ± 900
yIDRPP [LCP2_173/A1] | 1520 ± 310
yDKEYY [MET_1230/A1] | -70 ± 490
yVNVKC [MET_1356/A1] | 23000 ± 4200
yRKGGC [ALK_1282/A1] | 967 ± 280
yVRDIG [MUSK_577/A1] | 1090 ± 570
yVHVNA [MET_1349/A1] | 1650 ± 380
yRIMTQ [ALK_1359/A1] | 1700 ± 540
yVRDPT [LYN_32/A1] | 4940 ± 830
yETEGI [MCM6_276/A1] | 1240 ± 830
yEPPPS [LCP2_145/A1] | 3100 ± 1000
yEVMLK [MET_1313/A1] | 539 ± 240
yRATFP [MET_1003/A1] | 1690 ± 550
yNEDIN [MCM6_699/A1] | 286 ± 230
yPSLLS [MET_1365/A1] | 23.8 ± 260
yRRGDR [LTK_677/A1] | 709 ± 440

Binder | GRB2 complex binding differential signal
yFKKLN [LCP2_23/A1] | 146 ± 140
yLLGNS [LMNA _646 /A1] | 193 ± 310
ySGDYY [MERTK_749/A1] | 152 ± 220
ySADYY [MUSK_751/A1] | 101 ± 180
yAVVTR [LYN_306/A1] | 1550 ± 270
yYRRGD [LTK_676/A1] | 576 ± 850
yRASYY [LTK_672/A1] | 272 ± 260
yYSVHN [MET_1234/A1] | 1140 ± 240
ySVHNK [MET_1235/A1] | 1190 ± 250
yDIMKM [LYN_473/A1] | 745 ± 180
yLVVNP [MCM6_810/A1] | 413 ± 300
yIITEY [LYN_316/A1] | 309 ± 320
yQRMPL [MUSK_554/A1] | 1710 ± 430
yYISPR [LYN_193/A1] | 1060 ± 450
yGSWFG [ALK_1507/A1] | 46 ± 170
yILNGG [MERTK_929/A1] | 693 ± 240

Same assay, conditions: MDA-MB-231

Binder | GRB2 complex binding differential signal
yYNNST [LYN_265/A1] | 2520 ± 630
yIDRPP [LCP2_173/A1] | 400 ± 480
yDKEYY [MET_1230/A1] | 235 ± 220
yVNVKC [MET_1356/A1] | 4180 ± 840
yRKGGC [ALK_1282/A1] | 127 ± 300
yVRDIG [MUSK_577/A1] | 315 ± 260
yVHVNA [MET_1349/A1] | 708 ± 380
yRIMTQ [ALK_1359/A1] | 595 ± 420
yVRDPT [LYN_32/A1] | 1850 ± 400
yETEGI [MCM6_276/A1] | 1630 ± 430
yFDLIY [MET_830/A1] | 234 ± 370
yEPPPS [LCP2_145/A1] | 3050 ± 500
yEVMLK [MET_1313/A1] | 640 ± 300
yRATFP [MET_1003/A1] | 974 ± 540
yNEDIN [MCM6_699/A1] | 261 ± 310
yPSLLS [MET_1365/A1] | 270 ± 290
yRRGDR [LTK_677/A1] | 62.3 ± 260

Binder | GRB2 complex binding differential signal
yFKKLN [LCP2_23/A1] | 764 ± 320
yLLGNS [LMNA _646 /A1] | 784 ± 580
ySGDYY [MERTK_749/A1] | 622 ± 310
ySADYY [MUSK_751/A1] | 862 ± 360
yAVVTR [LYN_306/A1] | 432 ± 290
yYRRGD [LTK_676/A1] | 191 ± 310
yRASYY [LTK_672/A1] | 1110 ± 510
yYSVHN [MET_1234/A1] | 372 ± 270
ySVHNK [MET_1235/A1] | 734 ± 330
yDIMKM [LYN_473/A1] | 212 ± 370
yLVVNP [MCM6_810/A1] | 852 ± 330
yIITEY [LYN_316/A1] | 380 ± 290
yQRMPL [MUSK_554/A1] | 310 ± 320
yYISPR [LYN_193/A1] | 345 ± 550
yGSWFG [ALK_1507/A1] | 236 ± 510
yILNGG [MERTK_929/A1] | 768 ± 280

Same assay, conditions: T47D

Binder | GRB2 complex binding differential signal
yYNNST [LYN_265/A1] | 13600 ± 3800
yIDRPP [LCP2_173/A1] | 1620 ± 990
yDKEYY [MET_1230/A1] | 44.7 ± 950
yVNVKC [MET_1356/A1] | 14200 ± 1900
yRKGGC [ALK_1282/A1] | 149 ± 1000
yVRDIG [MUSK_577/A1] | 753 ± 1100
yVHVNA [MET_1349/A1] | 873 ± 1200
yRIMTQ [ALK_1359/A1] | 1160 ± 1000
yVRDPT [LYN_32/A1] | 2650 ± 1100
yETEGI [MCM6_276/A1] | 1800 ± 1100
yFDLIY [MET_830/A1] | 79.3 ± 1500
yEPPPS [LCP2_145/A1] | 2290 ± 1300
yEVMLK [MET_1313/A1] | 1150 ± 1400
yRATFP [MET_1003/A1] | 4410 ± 1700
yNEDIN [MCM6_699/A1] | 729 ± 1300
yPSLLS [MET_1365/A1] | 477 ± 1400
yRRGDR [LTK_677/A1] | 45.2 ± 1200

Binder | GRB2 complex binding differential signal
yFKKLN [LCP2_23/A1] | 899 ± 1000
yLLGNS [LMNA _646 /A1] | 749 ± 1500
ySGDYY [MERTK_749/A1] | 1440 ± 1700
ySADYY [MUSK_751/A1] | 2390 ± 1200
yAVVTR [LYN_306/A1] | 528 ± 1100
yYRRGD [LTK_676/A1] | 340 ± 1800
yRASYY [LTK_672/A1] | 4520 ± 1500
yYSVHN [MET_1234/A1] | 952 ± 1000
ySVHNK [MET_1235/A1] | 1090 ± 1000
yDIMKM [LYN_473/A1] | 371 ± 1100
yLVVNP [MCM6_810/A1] | 989 ± 1200
yIITEY [LYN_316/A1] | 689 ± 1400
yQRMPL [MUSK_554/A1] | 978 ± 1400
yYISPR [LYN_193/A1] | 1260 ± 1000
yGSWFG [ALK_1507/A1] | 278 ± 900
yILNGG [MERTK_929/A1] | 2230 ± 1100
